# Molecular target: SARS-CoV-2 spike protein (Severe acute respiratory syndrome coronavirus 2, UniProt P0DTC2)
# Settings: 1% NCT, 30 min, 37° C.
structure (smiles),measurement,value
"O=S(=O)(O)CCNCl [NCT, N-chlorotaurine]",phenylalanines chlorinated,two

# Reference: patent US12171732B2, “Compositions and use of N-chlorotaurine for treatment and prevention of respiratory infections” (priority 2021, dated 2024)
